Data: PMC4336329 (PLoS ONE, 2015)
The whole screen tested about 310,000 compounds, of which about 2,200 (0.71%) showed an effect of 50% or more. Effects have a minus sign here. The list shows a part of the results.

What follows are molecules tested against human ether-à-go-go-related gene (hERG) potassium channel (human, UniProt Q12809) (assay: primary screen, population patch clamp on CHO cells stably expressing hERG).
Sequence of human ether-à-go-go-related gene (hERG) potassium channel (Q12809 whole entry, looked up): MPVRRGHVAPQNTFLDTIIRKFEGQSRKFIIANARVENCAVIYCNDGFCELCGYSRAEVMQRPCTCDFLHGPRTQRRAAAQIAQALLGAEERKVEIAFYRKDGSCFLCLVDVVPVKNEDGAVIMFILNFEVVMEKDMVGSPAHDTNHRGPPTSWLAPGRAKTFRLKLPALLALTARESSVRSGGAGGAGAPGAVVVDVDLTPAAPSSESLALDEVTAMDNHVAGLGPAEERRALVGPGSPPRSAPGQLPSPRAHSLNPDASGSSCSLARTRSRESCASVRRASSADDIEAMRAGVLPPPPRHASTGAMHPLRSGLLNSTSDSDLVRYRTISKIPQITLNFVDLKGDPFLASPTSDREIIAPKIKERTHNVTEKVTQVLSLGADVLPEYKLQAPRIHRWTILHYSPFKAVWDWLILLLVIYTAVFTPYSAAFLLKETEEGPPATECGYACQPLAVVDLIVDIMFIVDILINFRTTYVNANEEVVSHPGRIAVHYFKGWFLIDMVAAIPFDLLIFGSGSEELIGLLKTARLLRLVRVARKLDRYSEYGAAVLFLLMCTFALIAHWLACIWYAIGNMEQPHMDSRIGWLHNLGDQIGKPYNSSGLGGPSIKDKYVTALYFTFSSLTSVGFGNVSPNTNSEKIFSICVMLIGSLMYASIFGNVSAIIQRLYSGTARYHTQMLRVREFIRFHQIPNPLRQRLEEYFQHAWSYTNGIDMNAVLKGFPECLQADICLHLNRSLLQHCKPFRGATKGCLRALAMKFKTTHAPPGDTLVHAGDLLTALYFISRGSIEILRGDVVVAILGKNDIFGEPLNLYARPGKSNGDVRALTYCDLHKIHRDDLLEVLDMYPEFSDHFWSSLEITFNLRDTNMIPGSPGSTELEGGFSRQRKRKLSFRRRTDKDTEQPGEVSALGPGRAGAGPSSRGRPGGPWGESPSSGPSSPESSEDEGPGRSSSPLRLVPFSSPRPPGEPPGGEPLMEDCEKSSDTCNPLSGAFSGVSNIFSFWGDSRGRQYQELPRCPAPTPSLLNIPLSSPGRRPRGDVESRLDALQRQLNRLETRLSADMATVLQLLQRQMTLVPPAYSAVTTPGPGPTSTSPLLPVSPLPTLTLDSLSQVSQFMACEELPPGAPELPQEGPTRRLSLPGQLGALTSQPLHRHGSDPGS

| SMILES | hERG current change (%, negative = inhibition) at 1uM |
| --- | --- |
| CCC1=C(C(=O)OC)C(c2cc(OC)ccc2OC)C(C#N)=C(N)O1 (stereo not drawn) | 19.1% |
| Cc1ccccc1NC(=O)/C(C#N)=C/c1ccccc1C(F)(F)F | 17.9% |
| NC1=NC(=O)CC(C(=O)Nc2cccc3ccccc23)S1 (stereo not drawn) | 12.1% |
| COc1ccc(CNC(=O)CN2C(=O)NC3(CCCc4sccc43)C2=O)cc1OC (stereo not drawn) | -0.222% |
| Cc1sc(NC(=O)c2ccco2)nc1-c1ccc2c(c1)CC(C)N2C(=O)C1CC1 (stereo not drawn) | 4.86% |
| CC(=O)c1ccc(-n2c(=O)[nH]c(=O)c3c(N)c(C(=O)c4ccc(Cl)cc4)sc32)cc1 | -2.15% |
| COc1ccc(CC(NC(C)=O)C(=O)NC2CCN(S(=O)(=O)c3ccc(NC(C)=O)cc3)CC2)cc1OC (stereo not drawn) | 11.6% |
| Cc1ccc(-n2c(O)c(C=NCc3ccccn3)c3ccccc3c2=O)cc1 | 1.33% |
| Cc1cc(S(=O)(=O)NCc2ccccc2)ccc1OCC(=O)NCC1CCCO1 (stereo not drawn) | 10.8% |
| COc1cc2[nH]c(=O)n(CCCCCC(=O)NCCCN3CCC(C)CC3)c(=O)c2cc1OC | 16.9% |
| COc1cc(OC)c(NC(=O)c2csc(C)c2)cc1Cl | 9.8% |
| COc1ccccc1/C=N\NC(=O)c1c(C)nc2ccc(Cl)cn12 | 13.2% |
| COc1ccccc1NC(=O)CSc1nnnn1C | 16.4% |
| COc1cc(C(=O)N/N=C(\C)Cn2nc([N+](=O)[O-])cc2C)ccc1O | -3.72% |
| Cc1ccc(CN2CCN(Cc3cccc4nccnc34)CC2CCO)cc1 (stereo not drawn) | -53.3% |
| CC(C)(C)c1csc(NC(=O)c2ccncc2)n1 | 1.52% |
| C#CCOCCOCCOCCNc1nc(N2CCN(C(=O)CCCCCCCCCCNC(=O)[C@H](CCCCN)n3cc(CCO)nn3)CC2)nc(N2CCN(C(=O)CCCCCCCCCCNC(=O)[C@@H]([C@H](C)O)n3cc(C)nn3)CC2)n1 | 4.63% |
| COc1cc(C=O)ccc1OCCCOc1ccccc1[N+](=O)[O-] | 4.45% |
| O=C(CC1NCCNC1=O)Nc1ccc2c(c1)OCCO2 (stereo not drawn) | 6.18% |
| O=C(NCC(=O)N(CC1CCCO1)C(C(=O)NC1CCCC1)c1cccnc1)c1ccco1 (stereo not drawn) | 6.65% |
| COC(=O)c1c(NC(=O)CN2CCCC(C)C2)c2c(C)cccc2n1C (stereo not drawn) | 5.7% |
| CSc1ccc(OC2CCCCC2NS(=O)(=O)c2ccccc2)cc1 (stereo not drawn) | 12.5% |

| SMILES | hERG current change (%, negative = inhibition) at 1uM |
| --- | --- |
| COCCOC(=O)C1=C(C)OC(N)=C(C#N)C1c1cc2cccc(C)c2nc1Cl (stereo not drawn) | 10.4% |
| Cc1ccc2c(c1)c1c3n2CCN=C3CCC1.Cl | -65.6% |
| COC(=O)[C@@]12CCCN1[C@H](c1ccc(-c3ccc(F)cc3)c(OC)c1)[C@H]1C(=O)N(C)C(=O)[C@H]12.O=C(O)C(F)(F)F | 2.03% |
| CC1(C)CN2C(c3ccc(Cl)cc3)N2C1 (stereo not drawn) | 13.6% |
| O=c1c2c3nc4ccccc4nc3n(-c3ccc4c(c3)OCCO4)c2ncn1C1CCCC1 | 9.38% |
| CCOC(=O)C1(CCOc2ccccc2)CCN(Cc2ccc(C(=O)OC)cc2)CC1 | -15.5% |
| O=C(CSc1ccc(-c2ccccc2)nn1)Nc1ccc2c(c1)OCCO2 | 8.92% |
| O=C(Nc1ccc(F)c(Cl)c1)C1CC(=O)N(Cc2ccccc2)C1 (stereo not drawn) | 9.18% |
| CCn1cc(C(=O)O)c(=O)c2cc(F)c(N3CCN(C(=S)NC(=O)c4ccccc4Cl)CC3)cc21 | 6.52% |
| Cc1ccc(OCC(=O)Nc2ccc(-c3nnc(-c4ccco4)o3)cc2)cc1 | 12% |
| CCN1CCN(c2nc3c(C)cccn3c(=O)c2/C=C(\C#N)S(=O)(=O)c2ccc(C)cc2)CC1 | -2.87% |
| CCOCCCNC(=S)NCCNc1nc2ccc(C)cc2cc1C#N | 4.11% |
| N#Cc1ccc2ccn(CC(=O)NC3CCCCCC3)c2c1 | 15.5% |
| Fc1ccc(CO/N=C/C2=C(Cl)c3ccccc3CC2)cc1 | 15.4% |
| COP(=O)(OC)C(NC(C)=O)C(Cl)(Cl)Cl (stereo not drawn) | 10.7% |
| Cc1nn(C(C)C(=O)NCCCN2CCCCCC2)c(=O)c2cc3sccc3n12 (stereo not drawn) | 4.7% |
| COc1cccc(/C=C/C(=O)N2CCN(c3n[nH]c(=O)[nH]c3=O)CC2)c1OC | 11% |
| C[C@@H](C(=O)Nc1ccc2ccccc2c1)[C@@H]1C[C@@]1(C)[C@@H](N)c1ccccc1.Cl | 14% |
| COc1ccc(C2OCC3(CO2)SC(N)=NC3=O)cc1 (stereo not drawn) | 13.4% |
| CC(C)C(=O)NC(Nc1cccc2cccnc12)C(Cl)(Cl)Cl (stereo not drawn) | 9.12% |
| CCC(=O)Nc1cc2[nH]c(=O)cc(C)c2cc1C | 18.2% |
| COc1ccc(S(=O)(=O)NCc2ccc3c(c2)OCO3)cc1C(=O)O | 13.8% |

| SMILES | hERG current change (%, negative = inhibition) at 1uM |
| --- | --- |
| CC(C)N1C(=O)CCC1C(=O)NCc1ccco1 (stereo not drawn) | -4.2% |
| CC(=O)c1c(COC(=O)c2ccc(F)cc2)nc2ccccc2[n+]1[O-] | 11.8% |
| FC(F)(F)c1nnc(Nc2ccc(Cl)cc2)s1 | 12% |
| COc1ccc(-c2cc(C(F)(F)F)nc(SCC(=O)N(C)Cc3cn(C)nc3C)n2)cc1OC | -3.07% |
| Cc1ccc(C(C)(c2ccc(N)cc2)c2ccc(N)cc2)cc1 | 11.7% |
| CCN1CCN(C(=O)CCS(=O)(=O)c2cc3c(cc2Cl)NC(=O)CO3)CC1 | 7.42% |
| Cc1ccc(/C=C/C(=O)OCC(=O)NC(=O)NCc2ccco2)cc1 | 11.6% |
| Cc1ccc(NC(=O)CCN2CCOCC2)cc1C | 11.1% |
| Cc1cccc(C)c1NC1=NCCCCC1 | 0.733% |
| Fc1cccc(NC(=S)NCc2ccc(Cl)cc2)c1 | 3.05% |
| O=c1c2c3c(sc2n(CCN2CCCCC2)c(=O)n1Cc1ccco1)CCCCC3 | 3.26% |
| CC1CCCN(S(=O)(=O)c2ccc(NC(=O)CN3CCN(C)CC3)cc2)C1.Cl (stereo not drawn) | 5.9% |
| CCCc1nc2ccccc2c(=O)n1/N=C/c1ccc(O)cc1O | -0.0666% |
| CCCNC(=S)Nc1ccc(Cl)cc1Cl | 5.16% |
| CSc1cccc(NC(=O)CCn2c(=O)c3cccn3c3cccnc32)c1 | 11.2% |
| CCN(CC)S(=O)(=O)c1ccc2c(c1)nc(SCn1nnc3ccccc3c1=O)n2CC | 20.7% |
| O=C(N/N=C/c1cccn1-c1cccc(C(=O)O)c1)Nc1ccccc1 | 10.7% |
| Cc1ccc(NC(=O)CS(=O)CC(=O)NCC2CCCO2)cc1 (stereo not drawn) | 10.2% |
| CC(C)OC(=O)CSc1nc2cc3c(cc2cc1C#N)OCO3 | 13.1% |
| C/C(=N\NS(=O)(=O)c1ccc([N+](=O)[O-])cc1)c1ccc(NC(=O)c2ccco2)cc1 | 10.3% |
| Cc1c(CBr)[n+](=O)c2c(n1[O-])C(Br)CCC2Br (stereo not drawn) | 17.6% |
| CC(=O)Nc1ccc(NC(=O)Oc2ccccc2)cc1 | 17.4% |

| SMILES | hERG current change (%, negative = inhibition) at 1uM |
| --- | --- |
| CCOC(=O)Oc1ccc2oc(=O)cc(C)c2c1 | 19.2% |
| CCc1ccccc1NC(=O)CCCN1C(=O)c2cccnc2C1=O | 11.9% |
| COc1cc2sc(C)nc2c2sccc12 | 7.65% |
| CN1CCOc2cc(S(=O)(=O)NCc3ccc(S(N)(=O)=O)cc3)ccc21 | 8.67% |
| Cc1ccccc1CN1C(=O)/C(=C\c2ccc(C(=O)NCCN3CCOCC3)cc2)Sc2ccccc21 | 10.8% |
| CC(C)CN(C(=O)COC(=O)Cn1cnc2ccccc2c1=O)C1CCS(=O)(=O)C1 (stereo not drawn) | 14.5% |
| COc1cc(Cc2ccc(N)c(OC)c2)ccc1N | 9.15% |
| CCN=C1S/C(=C\c2cc(Cl)c(OC)c(OC)c2)C(=O)N1CC | 6.92% |
| Cc1ccc(S(=O)(=O)NNC(=O)Nc2ccc(Cl)c(Cl)c2)cc1 | 10% |
| O=C(Nc1ccc(Cl)cc1)NC1(C(=O)NCCCN2CCOCC2)CCCCC1 | 3.73% |
| Cc1ccc(NC(=O)c2cc(=O)[nH]c3ccc(S(=O)(=O)N4CCOCC4)cc23)cc1 | 6.31% |
| O=C(Nc1ccc(F)cc1)N1CCn2c(nc3ccccc32)C1 | -3.54% |
| O=C(Nc1ccccc1)Nc1cc([N+](=O)[O-])ccc1F | 11.5% |
| Cc1ccc(-c2ccc(/C=N/c3ncn[nH]3)o2)cc1Cl | 12% |
| CCn1c(CNC(=O)c2ccco2)nnc1SCC(=O)c1ccc(OC)cc1 | 7.01% |
| Cc1[nH]c2ccccc2c1C(Nc1nccs1)c1ccncc1 (stereo not drawn) | 20% |
| CC(Sc1nc(C(C)(C)C)cc(-c2ccccc2)c1C#N)C(=O)Nc1ccccc1 (stereo not drawn) | -3.03% |
| CSCC(C)N1CCC(CCC(=O)NC2CC2)CC1 (stereo not drawn) | 4.72% |
| Cn1c(COc2ccc(C(=O)O)cc2)nc2ccccc21 | 14.2% |
| COc1ccc(Cl)cc1N(CC(=O)NC1CC1)S(=O)(=O)c1ccc(C)c([N+](=O)[O-])c1 | 5.89% |
| CCCn1c(=O)c(Br)cn(-c2ccccc2C)c1=O | 16.1% |
